Data published in patent publication US20150152166A1 (THERACLONE SCIENCES, published 2015).

T1: CMV gp116 epitope AD2 site peptide SHRANETIYNTTLKYGDTTGTNTTK (CMV (human cytomegalovirus), not fully specified)
T1 construct: Synthetic polypeptide corresponding to the AD2 site of gp116 (glycoprotein B); A biotinylated form was used to select B cells; also called CMV gp116 AD2 peptide
T1 peptide: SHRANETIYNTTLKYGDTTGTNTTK


Key:
[1] = target: T1, CMV gp116 epitope AD2 site peptide …; assay: kinetic affinity measurement, method not stated; antigen taken as CMV gp116 AD2 peptide
[2] = target: T1, CMV gp116 epitope AD2 site peptide …; assay: kinetic affinity measurement, method not stated; antigen taken as AD2 peptide; same value as r10, table re-sorted by koff
[3] = target: T1, CMV gp116 epitope AD2 site peptide …; assay: kinetic affinity measurement, method not stated; antigen taken as AD2 peptide; same value as r11, table re-sorted by koff

| Binder | Kd [1] [nM] | koff [1] [s⁻¹] | kon [1] [M⁻¹ s⁻¹] | Kd [2] [nM] | koff [2] [s⁻¹] | kon [2] [M⁻¹ s⁻¹] | Kd [3] [nM] | koff [3] [s⁻¹] | kon [3] [M⁻¹ s⁻¹] |
| --- | --- | --- | --- | --- | --- | --- | --- | --- | --- |
| 9C16 human anti-CMV antibody (antibody, human IgG1, kappa, Recombinant human IgG, gamma heavy and kappa light chain; also called mAb F-9C16) heavy: QVQLVDSGGGVVQPGRSLRLSCAASGLTFSDYGMHWVRQAPGKGLEWVAVISKDGTNTHYADSVRGRFTISRDNSKNIFYLQMNGLRAEDTAVYYSGRDGKCPDLKCYSGLIDYWGQGTLVTVSSASTKGPSVFPLAPSSKSTSGGTAALGCLVKDYFPEPVTVSWNSGALTSGVHTFPAVLQSSGLYSLSSVVTVPSSSLGTQTYICNVNHKPSNTKVDKRV[human IgG1 Fc left out] light: EIVLTQSPATLSLSPGERATLSCRASQSVGGYLAWYQQKPGQAPRLLIYDASKRATGIPARFSGSGSGTDFTLTISTLEPEDFAIYYCHQRSSWPPLTFGGGTKVDIKRTVAAPSVFIFPPSDEQLKSGTASVVCLLNNFYPREAKVQWKVDNALQSGNSQESVTEQDSKDSTYSLSSTLTLSKADYEKHKVYACEVTHQGLSSPVTKSFNRGEC | 4.9 | 0.00286 | 583000 | 4.9 | 0.00286 | 583000 |  |  |  |
| 2M16 human anti-CMV antibody (antibody, Recombinant human IgG, gamma heavy and kappa light chain; also called mAb B-2M16) heavy: QVQLVDSGGGMVQPGRSLRLSCSASGLTFSNYGMHWVRQAPGKGLEWVAVISSDGSNEHYADSVKGRFTISRDNFNNMLYLQMNSLRAEDTAVYYSARDGRCPDVNCYSGLIDYWGQGTLVTVSSASTKGPSVFPLAPSSKSTSGGTAALGCLVKDYFPEPVTVSWNSGALTSGVHTFPAVLQSSGLYSLSSVVTVPSSSLGTQTYICNVNHKPSNTKVDKRV[human IgG1 Fc left out] light: EIVLTQSPATLSLSPGERATLSCRASQSVGRYLAWYQQKGGQAPRLLIYDASNRATGIPARFSGSGSGTDFTLTIDSLEPEDFAVYYCQQRSNWPPLTFGGGSKVEIKRTVAAPSVFIFPPSDEQLKSGTASVVCLLNNFYPREAKVQWKVDNALQSGNSQESVTEQDSKDSTYSLSSTLTLSKADYEKHKVYACEVTHQGLSSPVTKSFNRGEC | 8.47 | 0.023 |  |  |  |  | 8.47 | 0.023 | 2.7e+06 |
